# Results taken from publication PMC6570896.
# Chains of the proteins cited; added tags and fusions are not shown. Lines headed by an entry give the natural chain unless they say otherwise; changes in a name come on top. Residues count along the entry.
# UniProt P17070: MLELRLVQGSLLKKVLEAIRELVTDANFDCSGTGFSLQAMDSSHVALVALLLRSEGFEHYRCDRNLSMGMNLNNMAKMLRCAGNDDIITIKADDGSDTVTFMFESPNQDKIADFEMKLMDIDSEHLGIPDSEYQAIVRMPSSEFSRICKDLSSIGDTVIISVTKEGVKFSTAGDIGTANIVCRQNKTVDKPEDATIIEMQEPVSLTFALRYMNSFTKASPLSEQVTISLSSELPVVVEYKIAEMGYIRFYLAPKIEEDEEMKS
# UniProt Q9FXM3, residues 1-139: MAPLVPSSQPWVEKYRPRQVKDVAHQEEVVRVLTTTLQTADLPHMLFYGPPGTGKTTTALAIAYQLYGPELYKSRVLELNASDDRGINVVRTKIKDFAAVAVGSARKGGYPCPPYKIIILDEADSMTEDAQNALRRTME
# UniProt Q9M7Q7: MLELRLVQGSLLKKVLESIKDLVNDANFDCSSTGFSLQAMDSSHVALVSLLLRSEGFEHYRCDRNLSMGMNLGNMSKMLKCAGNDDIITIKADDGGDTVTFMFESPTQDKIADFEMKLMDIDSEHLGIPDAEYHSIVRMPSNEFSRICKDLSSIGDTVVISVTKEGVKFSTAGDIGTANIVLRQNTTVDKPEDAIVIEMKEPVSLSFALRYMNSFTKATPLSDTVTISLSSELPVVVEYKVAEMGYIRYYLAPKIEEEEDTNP
# UniProt Q9ZW35: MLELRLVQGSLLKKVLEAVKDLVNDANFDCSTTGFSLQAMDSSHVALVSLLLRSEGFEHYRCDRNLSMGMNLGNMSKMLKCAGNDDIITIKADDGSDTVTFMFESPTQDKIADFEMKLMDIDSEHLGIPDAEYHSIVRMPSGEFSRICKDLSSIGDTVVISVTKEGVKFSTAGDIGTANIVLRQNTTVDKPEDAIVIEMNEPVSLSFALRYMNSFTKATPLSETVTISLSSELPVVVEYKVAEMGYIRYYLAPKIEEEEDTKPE
# These are yes or no findings as the source states them, for the method shown. In cells and extracts the contact can be indirect. Some results given as binding are weak or reduced against the parent protein; the word gives no strength.
# Legend:
# Test in all cases: split reporter; BiFC: fusions to YFP^N (1-155 aa) and YFP^C (156-239 aa) co-expressed transiently in Nicotiana benthamiana leaf epidermal cells; YFP seen by confocal microscopy
# [1] = target: OsPCNA-YFP^C (rice (Oryza sativa)) (UniProt P17070)
# [2] = target: T1, OsRFC1 with 300 aa deleted in its C-terminal (rice (Oryza sativa)) (UniProt Q2R2B4)
# T1 sequence: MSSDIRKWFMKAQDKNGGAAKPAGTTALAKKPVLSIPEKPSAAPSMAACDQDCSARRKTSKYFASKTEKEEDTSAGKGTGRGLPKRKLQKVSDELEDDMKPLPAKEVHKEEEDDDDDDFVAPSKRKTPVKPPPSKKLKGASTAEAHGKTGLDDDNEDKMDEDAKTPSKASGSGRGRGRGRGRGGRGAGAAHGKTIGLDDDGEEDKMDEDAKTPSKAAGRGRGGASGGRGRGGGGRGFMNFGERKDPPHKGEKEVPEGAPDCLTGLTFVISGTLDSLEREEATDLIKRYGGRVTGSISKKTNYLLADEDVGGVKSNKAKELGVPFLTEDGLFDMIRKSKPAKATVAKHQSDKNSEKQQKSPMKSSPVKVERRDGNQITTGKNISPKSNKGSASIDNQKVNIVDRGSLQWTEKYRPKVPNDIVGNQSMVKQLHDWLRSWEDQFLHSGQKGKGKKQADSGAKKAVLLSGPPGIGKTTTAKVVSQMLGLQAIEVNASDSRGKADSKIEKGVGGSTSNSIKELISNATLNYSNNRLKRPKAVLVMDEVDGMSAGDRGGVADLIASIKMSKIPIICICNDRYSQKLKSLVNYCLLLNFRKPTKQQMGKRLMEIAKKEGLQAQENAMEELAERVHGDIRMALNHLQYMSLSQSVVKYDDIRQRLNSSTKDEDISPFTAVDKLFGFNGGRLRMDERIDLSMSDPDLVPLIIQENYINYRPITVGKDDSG
# [3] = target: T2, OsRFC1 Δ640–1021 (rice (Oryza sativa)) (UniProt Q2R2B4)
# T2 sequence: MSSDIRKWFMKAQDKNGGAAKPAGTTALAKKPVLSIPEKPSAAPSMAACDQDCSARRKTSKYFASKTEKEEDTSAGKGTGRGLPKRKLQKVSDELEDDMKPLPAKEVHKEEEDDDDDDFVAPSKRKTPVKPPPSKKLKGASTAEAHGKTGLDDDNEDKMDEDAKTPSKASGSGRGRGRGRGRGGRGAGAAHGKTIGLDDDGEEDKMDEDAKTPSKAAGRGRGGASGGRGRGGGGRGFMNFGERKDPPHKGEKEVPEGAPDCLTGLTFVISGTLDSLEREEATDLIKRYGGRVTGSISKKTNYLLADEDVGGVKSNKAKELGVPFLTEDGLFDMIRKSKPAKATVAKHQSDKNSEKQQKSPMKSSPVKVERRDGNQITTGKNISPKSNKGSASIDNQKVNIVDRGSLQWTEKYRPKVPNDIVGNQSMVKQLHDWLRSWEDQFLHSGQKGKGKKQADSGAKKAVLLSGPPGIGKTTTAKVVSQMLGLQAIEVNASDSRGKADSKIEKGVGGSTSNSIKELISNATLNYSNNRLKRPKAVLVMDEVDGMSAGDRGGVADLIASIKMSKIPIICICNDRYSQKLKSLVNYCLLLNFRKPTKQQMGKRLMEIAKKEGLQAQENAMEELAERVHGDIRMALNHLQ
# [4] = target: OsRFC2 Δ140–339 (rice (Oryza sativa)) (UniProt Q9FXM3)
# [5] = target: T3, OsRFC3 Δ1–245 (rice (Oryza sativa)) (UniProt Q6YZ54)
# T3 sequence: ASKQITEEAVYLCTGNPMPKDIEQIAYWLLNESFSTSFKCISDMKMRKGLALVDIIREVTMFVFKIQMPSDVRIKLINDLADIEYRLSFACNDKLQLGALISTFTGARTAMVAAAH
# [6] = target: T4, OsRFC3 Δ242–361 (rice (Oryza sativa)) (UniProt Q6YZ54)
# T4 sequence: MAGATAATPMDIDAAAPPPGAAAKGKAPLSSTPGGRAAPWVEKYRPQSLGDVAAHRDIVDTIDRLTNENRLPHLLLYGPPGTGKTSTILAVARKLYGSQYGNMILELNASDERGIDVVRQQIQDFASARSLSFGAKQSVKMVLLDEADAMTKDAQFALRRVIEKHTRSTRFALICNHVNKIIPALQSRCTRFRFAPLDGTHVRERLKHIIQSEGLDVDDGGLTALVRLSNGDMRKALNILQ
# [7] = target: T5, OsRFC3 Δ62–361 (rice (Oryza sativa)) (UniProt Q6YZ54)
# T5 sequence: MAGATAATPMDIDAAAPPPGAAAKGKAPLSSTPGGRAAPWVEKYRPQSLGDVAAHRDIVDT
# [8] = target: T6, OsRFC4 Δ36–335 (rice (Oryza sativa)) (UniProt Q7XRX1)
# T6 sequence: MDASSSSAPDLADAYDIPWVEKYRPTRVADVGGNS
# [9] = target: AtPCNA1-YFP^C (Arabidopsis thaliana) (UniProt Q9M7Q7)
# [10] = target: AtPCNA2-YFP^C (Arabidopsis thaliana) (UniProt Q9ZW35)
Substance,binding [1],binding [2],binding [3],binding [4],binding [5],binding [6],binding [7],binding [8],binding [9],binding [10]
OsPCNA-YFP^C (from UniProt P17070 1-263),binds,binds,no binding,no binding,binds,binds,binds,binds,,
AtPCNA1-YFP^C (from UniProt Q9M7Q7 1-263),,,,,,,,,binds,binds
